# Data taken from the supplement of paper PMC8728848.
# The other results are listed elsewhere or left out.
# B1: PA-IL (Pseudomonas aeruginosa) (protein)
# chain: AWKGEVLANNEAGQVTSIIYNPGDVITIVAAGWASYGPTQKWGPQGDREHPDQGLICHDAFCGALVMKIGNSGTIPVNTGLFRWVAPNNVQGAITLIYNDVPGTYGNNSGSFSVNIGKDQS
# Tests used:
# Assay in all cases: glycan array binding signal (z-score within array); higher = stronger binding
# Details in all cases: glycan notation: IUPAC condensed, linker removed
# [1] = target: Fuc(a1-2)Gal
# Method in brief: (§1)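 Glycan array data came from 3228 arrays in the Consortium for Functional Glycomics database, and only arrays with an available protein sequence were kept. Glycan names were put into IUPAC-condensed notation, and columns mapping to the same glycan were averaged. The binding signal is a within-array Z-score, averaged across arrays of one protein sequence run at different concentrations or buffers and across linkers. A negative Z-score can be read as non-binding.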
# [2] = target: Fuc(a1-2)Gal(b1-3)GalNAc
# Method in brief: as §1
# [3] = target: Fuc(a1-2)Gal(b1-3)GalNAc(b1-3)Gal
# Method in brief: as §1
# [4] = target: Fuc(a1-2)Gal(b1-3)GalNAc(b1-3)Gal(a1-4)Gal(b1-4)Glc
# Method in brief: as §1
# [5] = target: Fuc(a1-2)Gal(b1-3)GalNAc(b1-4)[Neu5Ac(a2-3)]Gal(b1-4)Glc
# Method in brief: as §1
# [6] = target: Fuc(a1-2)Gal(b1-3)GlcNAc
# Method in brief: as §1
# [7] = target: Fuc(a1-2)Gal(b1-3)GlcNAc(b1-3)Gal(b1-4)Glc
# Method in brief: as §1
# [8] = target: Fuc(a1-2)Gal(b1-3)[Fuc(a1-4)]GlcNAc
# Method in brief: as §1
# [9] = target: Fuc(a1-2)Gal(b1-4)Glc
# Method in brief: as §1
# [10] = target: Fuc(a1-2)Gal(b1-4)GlcNAc
# Method in brief: as §1
# [11] = target: Fuc(a1-2)Gal(b1-4)GlcNAc(b1-3)Gal(b1-4)GlcNAc
# Method in brief: as §1
# [12] = target: Fuc(a1-2)Gal(b1-4)GlcNAc(b1-3)Gal(b1-4)GlcNAc(b1-3)Gal(b1-4)GlcNAc
# Method in brief: as §1
# [13] = target: Fuc(a1-2)Gal(b1-4)[Fuc(a1-3)]GlcNAc
# Method in brief: as §1
# [14] = target: Fuc(a1-2)Gal(b1-4)[Fuc(a1-3)]GlcNAc(b1-3)Gal(b1-4)[Fuc(a1-3)]GlcNAc
# Method in brief: as §1
# [15] = target: Fuc(a1-2)Gal(b1-4)[Fuc(a1-3)]GlcNAc(b1-3)Gal(b1-4)[Fuc(a1-3)]GlcNAc(b1-3)Gal(b1-4)[Fuc(a1-3)]GlcNAc
# Method in brief: as §1
# [16] = target: Fuc(a1-2)GlcNAc
# Method in brief: as §1
# [17] = target: Fuc(a1-2)[Gal(a1-3)]Gal
# Method in brief: as §1
# [18] = target: Fuc(a1-2)[Gal(a1-3)]Gal(b1-3)GlcNAc
# Method in brief: as §1
# [19] = target: Fuc(a1-2)[Gal(a1-3)]Gal(b1-4)Glc
# Method in brief: as §1
# [20] = target: Fuc(a1-2)[Gal(a1-3)]Gal(b1-4)GlcNAc
# Method in brief: as §1
# [21] = target: Fuc(a1-2)[Gal(a1-3)]Gal(b1-4)[Fuc(a1-3)]GlcNAc
# Method in brief: as §1
# [22] = target: Fuc(a1-2)[Gal(a1-4)]Gal(b1-4)GlcNAc
# Method in brief: as §1
# [23] = target: Fuc(a1-2)[GalNAc(a1-3)]Gal
# Method in brief: as §1
# [24] = target: Fuc(a1-2)[GalNAc(a1-3)]Gal(b1-3)GlcNAc
# Method in brief: as §1
# [25] = target: Fuc(a1-2)[GalNAc(a1-3)]Gal(b1-4)Glc
# Method in brief: as §1
# [26] = target: Fuc(a1-2)[GalNAc(a1-3)]Gal(b1-4)GlcNAc
# Method in brief: as §1
# [27] = target: Fuc(a1-2)[GalNAc(a1-3)]Gal(b1-4)[Fuc(a1-3)]GlcNAc
# Method in brief: as §1
# [28] = target: Fuc(a1-2)[GalNAc(a1-4)]Gal(b1-4)GlcNAc
# Method in brief: as §1
# [29] = target: Fuc(a1-2)[GalNAc(b1-3)]Gal
# Method in brief: as §1
# [30] = target: Fuc(a1-3)GlcNAc
# Method in brief: as §1
# [31] = target: Fuc(a1-3)[Gal(b1-4)]GlcNAc
# Method in brief: as §1
# [32] = target: Fuc(a1-3)[Gal(b1-4)]GlcNAc(b1-4)Gal(b1-4)[Fuc(a1-3)]GlcNAc
# Method in brief: as §1
# [33] = target: Fuc(a1-3)[Gal(b1-4)]GlcNAc(b1-4)Gal(b1-4)[Fuc(a1-3)]GlcNAc(b1-4)Gal(b1-4)[Fuc(a1-3)]GlcNAc
# Method in brief: as §1
# [34] = target: Fuc(a1-3)[Gal3S(b1-4)]GlcNAc
# Method in brief: as §1
# [35] = target: Fuc(a1-3)[GalNAc(b1-4)]GlcNAc
# Method in brief: as §1
# [36] = target: Fuc(a1-4)GlcNAc
# Method in brief: as §1
# [37] = target: Fuc(b1-3)GlcNAc
# Method in brief: as §1
# [38] = target: Gal(a1-2)Gal
# Method in brief: as §1
# [39] = target: Gal(a1-3)Gal
# Method in brief: as §1
# [40] = target: Gal(a1-3)Gal(b1-3)GlcNAc
# Method in brief: as §1
# [41] = target: Gal(a1-3)Gal(b1-4)Glc
# Method in brief: as §1
# [42] = target: Gal(a1-3)Gal(b1-4)GlcNAc
# Method in brief: as §1
# [43] = target: Gal(a1-3)Gal(b1-4)[Fuc(a1-3)]GlcNAc
# Method in brief: as §1
# [44] = target: Gal(a1-3)GalNAc
# Method in brief: as §1
# [45] = target: Gal(a1-3)[Gal(a1-4)]Gal(b1-4)GlcNAc
# Method in brief: as §1
# [46] = target: Gal(a1-4)Gal(b1-4)Glc
# Method in brief: as §1
# [47] = target: Gal(a1-4)Gal(b1-4)GlcNAc
# Method in brief: as §1
# [48] = target: Gal(a1-4)GlcNAc
# Method in brief: as §1
# [49] = target: Gal(a1-6)Glc
# Method in brief: as §1
# [50] = target: Gal(b1-2)Gal
# Method in brief: as §1
# [51] = target: Gal(b1-3)Gal
# Method in brief: as §1
# [52] = target: Gal(b1-3)GalNAc
# Method in brief: as §1
# [53] = target: Gal(b1-3)GalNAc(b1-3)Gal(a1-4)Gal(b1-4)Glc
# Method in brief: as §1
# [54] = target: Gal(b1-3)GalNAc(b1-4)Gal(b1-4)Glc
# Method in brief: as §1
# [55] = target: Gal(b1-3)GalNAc(b1-4)[Neu5Ac(a2-3)]Gal(b1-4)Glc
# Method in brief: as §1
# [56] = target: Gal(b1-3)GlcNAc
# Method in brief: as §1
# [57] = target: Gal(b1-3)GlcNAc(b1-3)Gal(b1-4)Glc
# Method in brief: as §1
# [58] = target: Gal(b1-3)GlcNAc(b1-3)Gal(b1-4)GlcNAc
# Method in brief: as §1
# [59] = target: Gal(b1-3)[Fuc(a1-4)]GlcNAc
# Method in brief: as §1
# [60] = target: Gal(b1-3)[Fuc(a1-4)]GlcNAc(b1-3)Gal(b1-4)GlcNAc
# Method in brief: as §1
# [61] = target: Gal(b1-3)[Fuc(a1-4)]GlcNAc(b1-3)Gal(b1-4)[Fuc(a1-3)]GlcNAc
# Method in brief: as §1
# [62] = target: Gal(b1-3)[GlcNAc(b1-6)]GalNAc
# Method in brief: as §1
# [63] = target: Gal(b1-3)[Neu5Ac(a2-6)]GalNAc
# Method in brief: as §1
# [64] = target: Gal(b1-3)[Neu5Ac(a2-6)]GlcNAc(b1-6)Gal(b1-4)Glc
# Method in brief: as §1
# [65] = target: Gal(b1-3)[Neu5Ac(b2-6)]GalNAc
# Method in brief: as §1
# [66] = target: Gal(b1-4)GalNAc(a1-3)[Fuc(a1-2)]Gal(b1-4)GlcNAc
# Method in brief: as §1
# [67] = target: Gal(b1-4)GalNAc(b1-3)[Fuc(a1-2)]Gal(b1-4)GlcNAc
# Method in brief: as §1
# [68] = target: Gal(b1-4)Glc
# Method in brief: as §1
# [69] = target: Gal(b1-4)Glc6S
# Method in brief: as §1
# [70] = target: Gal(b1-4)GlcNAc
# Method in brief: as §1
# [71] = target: Gal(b1-4)GlcNAc(b1-2)Man(a1-3)[Gal(b1-4)GlcNAc(b1-2)Man(a1-6)]Man(b1-4)GlcNAc(b1-4)GlcNAc
# Method in brief: as §1
# [72] = target: Gal(b1-4)GlcNAc(b1-3)Gal(b1-4)Glc
# Method in brief: as §1
# [73] = target: Gal(b1-4)GlcNAc(b1-3)Gal(b1-4)GlcNAc
# Method in brief: as §1
# [74] = target: Gal(b1-4)GlcNAc(b1-3)Gal(b1-4)GlcNAc(b1-3)Gal(b1-4)GlcNAc
# Method in brief: as §1
# [75] = target: Gal(b1-4)GlcNAc(b1-3)Gal(b1-4)[Fuc(a1-3)]GlcNAc(b1-3)Gal(b1-4)[Fuc(a1-3)]GlcNAc
# Method in brief: as §1
binder,measurement,setting,value
B1,glycan array binding signal (z-score),[1],-0.365
same,glycan array binding signal (z-score),[2],-0.364
same,glycan array binding signal (z-score),[3],-0.321
same,glycan array binding signal (z-score),[4],-0.104
same,glycan array binding signal (z-score),[5],-0.365
same,glycan array binding signal (z-score),[6],-0.365
same,glycan array binding signal (z-score),[7],-0.365
same,glycan array binding signal (z-score),[8],-0.365
same,glycan array binding signal (z-score),[9],-0.362
same,glycan array binding signal (z-score),[10],-0.364
same,glycan array binding signal (z-score),[11],-0.365
same,glycan array binding signal (z-score),[12],-0.362
same,glycan array binding signal (z-score),[13],-0.362
same,glycan array binding signal (z-score),[14],-0.364
same,glycan array binding signal (z-score),[15],-0.364
same,glycan array binding signal (z-score),[16],-0.365
same,glycan array binding signal (z-score),[17],2.09
same,glycan array binding signal (z-score),[18],2.19
same,glycan array binding signal (z-score),[19],1.99
same,glycan array binding signal (z-score),[20],3.03
same,glycan array binding signal (z-score),[21],2.42
same,glycan array binding signal (z-score),[22],3.69
same,glycan array binding signal (z-score),[23],0.056
same,glycan array binding signal (z-score),[24],-0.11
same,glycan array binding signal (z-score),[25],0.183
same,glycan array binding signal (z-score),[26],0.174
same,glycan array binding signal (z-score),[27],0.183
same,glycan array binding signal (z-score),[28],2.66
same,glycan array binding signal (z-score),[29],-0.363
same,glycan array binding signal (z-score),[30],-0.363
same,glycan array binding signal (z-score),[31],-0.363
same,glycan array binding signal (z-score),[32],-0.365
same,glycan array binding signal (z-score),[33],-0.363
same,glycan array binding signal (z-score),[34],-0.365
same,glycan array binding signal (z-score),[35],-0.365
same,glycan array binding signal (z-score),[36],-0.364
same,glycan array binding signal (z-score),[37],-0.365
same,glycan array binding signal (z-score),[38],4.77
same,glycan array binding signal (z-score),[39],2.81
same,glycan array binding signal (z-score),[40],2.7
same,glycan array binding signal (z-score),[41],3.73
same,glycan array binding signal (z-score),[42],3.65
same,glycan array binding signal (z-score),[43],4.11
same,glycan array binding signal (z-score),[44],3.41
same,glycan array binding signal (z-score),[45],3.92
same,glycan array binding signal (z-score),[46],2.15
same,glycan array binding signal (z-score),[47],3.6
same,glycan array binding signal (z-score),[48],3.15
same,glycan array binding signal (z-score),[49],1.53
same,glycan array binding signal (z-score),[50],1.65
same,glycan array binding signal (z-score),[51],-0.271
same,glycan array binding signal (z-score),[52],-0.363
same,glycan array binding signal (z-score),[53],-0.365
same,glycan array binding signal (z-score),[54],-0.363
same,glycan array binding signal (z-score),[55],-0.36
same,glycan array binding signal (z-score),[56],0.348
same,glycan array binding signal (z-score),[57],-0.209
same,glycan array binding signal (z-score),[58],-0.258
same,glycan array binding signal (z-score),[59],-0.363
same,glycan array binding signal (z-score),[60],-0.12
same,glycan array binding signal (z-score),[61],-0.364
same,glycan array binding signal (z-score),[62],-0.365
same,glycan array binding signal (z-score),[63],-0.365
same,glycan array binding signal (z-score),[64],-0.365
same,glycan array binding signal (z-score),[65],-0.365
same,glycan array binding signal (z-score),[66],-0.364
same,glycan array binding signal (z-score),[67],-0.365
same,glycan array binding signal (z-score),[68],-0.364
same,glycan array binding signal (z-score),[69],0.529
same,glycan array binding signal (z-score),[70],-0.059
same,glycan array binding signal (z-score),[71],-0.291
same,glycan array binding signal (z-score),[72],-0.205
same,glycan array binding signal (z-score),[73],0.15
same,glycan array binding signal (z-score),[74],-0.284
same,glycan array binding signal (z-score),[75],-0.355
